pIC50: −log10 of the molar value. A lower IC50 marks a more sensitive line; where the fit passes the top or lowest dose, that dose stands as a limit. The AUC spans the tested range (256-fold, ending at the top dose) of the same fit: 1 means no effect, lower means more sensitive. For some of these results: An inferred top dose was calculated from the reported fits.
Legend:
Assay in all cases: Viability of human cancer cell lines after 72 h of drug (GDSC screen)
[1] = compound: CC(C)N(CCCNC(=O)Nc1ccc(C(C)(C)C)cc1)C[C@H]1O[C@@H](n2cc(Br)c3c(N)ncnc32)[C@H](O)[C@@H]1O [SGC0946]; conditions: top dose 0.5 µM; top dose inferred
Method: (§1)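 Human cancer cell lines in 384-well plates, medium with 10% serum, drug for 72 h over a 256-fold dose range (nine 2-fold or five 4-fold steps up to the top dose). Adherent lines were fixed and stained with the nucleic acid dye Syto60, suspension lines read with resazurin; signal relative to control wells, capped at 0 and 100%. One two-parameter sigmoid per drug and line, fitted in a mixed model over all curves with the slope shared within a line.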

[2] = compound: CCC/C=C/C=C/C(=O)O[C@H]1/C(=C/C(=O)OC)C[C@H]2C[C@H]([C@@H](C)O)OC(=O)C[C@H](O)C[C@@H]3C[C@H](OC(C)=O)C(C)(C)[C@](O)(C[C@@H]4C/C(=C/C(=O)OC)C[C@H](/C=C/C(C)(C)[C@]1(O)O2)O4)O3 [Bryostatin 1]; conditions: top dose 0.008 µM; top dose inferred
Method: as §1

[3] = compound: COc1ccc(COc2ccc(Cc3cnc(N)nc3N)cc2OC)cc1 [GW-2580]; conditions: top dose 20 µM; top dose inferred
Method: as §1

[4] = compound: Cc1cc(Nc2cc(N3CCN(C)CC3)nc(Sc3ccc(NC(=O)C4CC4)cc3)n2)n[nH]1 [VX-680]; conditions: top dose 2 µM
Method: as §1

[5] = compound: Nc1cccc2c1CN(C1CCC(=O)NC1=O)C2=O [Lenalidomide]; conditions: top dose 5 µM; top dose inferred
Method: as §1

Cell Line	AUC [1]	pIC50 [1]	AUC [2]	pIC50 [2]	AUC [3]	pIC50 [3]	AUC [4]	pIC50 [4]	AUC [5]	pIC50 [5]
BV-173 (chronic myeloid leukaemia, suspension)	0.982	< 6.30	0.973	< 8.10	0.989	< 4.70	0.439	7.06	0.944	< 5.30
SF126 (glioma, adherent)	0.973	< 6.30	0.974	< 8.10	0.985	< 4.70	0.775	6.08	0.98	< 5.30
GRANTA-519 (B-cell lymphoma, suspension)	0.99	< 6.30	0.988	< 8.10	0.97	< 4.70	0.935	< 5.70	0.991	< 5.30
KARPAS-422 (B-cell lymphoma, suspension)	0.985	< 6.30	0.944	< 8.10	0.985	< 4.70	0.915	< 5.70	0.981	< 5.30
KNS-81-FD (glioma, adherent)	0.976	< 6.30	0.979	< 8.10	0.971	< 4.70	0.941	< 5.70	0.981	< 5.30
ES4 (Ewing sarcoma, adherent)	0.98	< 6.30	0.982	< 8.10	0.98	< 4.70	0.74	6.17	0.969	< 5.30
EoL-1-cell (haematopoietic neoplasm, suspension)	0.978	< 6.30	0.922	< 8.10	0.975	< 4.70	0.615	6.61	0.972	< 5.30
SK-MEL-2 (melanoma, adherent)	0.986	< 6.30	0.97	< 8.10	0.98	< 4.70	0.98	< 5.70	0.979	< 5.30
EW-18 (Ewing sarcoma, suspension)	0.981	< 6.30	0.977	< 8.10	0.986	< 4.70	0.986	< 5.70	0.956	< 5.30
TE-5 (oesophagus, adherent)	0.982	< 6.30	0.972	< 8.10	0.984	< 4.70	0.958	< 5.70	0.983	< 5.30
LS-411N (large intestine, adherent)	0.979	< 6.30	0.979	< 8.10	0.979	< 4.70	0.765	6.05	0.968	< 5.30
DMS-114 (small cell lung carcinoma, adherent)	0.983	< 6.30	0.977	< 8.10	0.965	< 4.70	0.95	< 5.70	0.985	< 5.30
A388 (skin, adherent)	0.981	< 6.30	0.967	< 8.10	0.976	< 4.70	0.635	6.50	0.974	< 5.30
LS-1034 (large intestine, adherent)	0.984	< 6.30	0.985	< 8.10	0.976	< 4.70	0.887	< 5.70	0.984	< 5.30
SW684 (fibrosarcoma, adherent)	0.978	< 6.30	0.895	< 8.10	0.971	< 4.70	0.982	< 5.70	0.983	< 5.30
HUTU-80 (digestive system, adherent)	0.991	< 6.30	0.96	< 8.10	0.939	< 4.70	0.24	7.58	0.991	< 5.30
EW-24 (Ewing sarcoma, semi-adherent)	0.971	< 6.30	0.992	< 8.10	0.992	< 4.70	0.99	< 5.70	0.986	< 5.30
ST486 (Burkitt lymphoma, suspension)	0.989	< 6.30	0.99	< 8.10	0.99	< 4.70	0.596	6.65	0.99	< 5.30
MLMA (hairy cell leukaemia, semi-adherent)	0.984	< 6.30	0.98	< 8.10	0.986	< 4.70	0.98	< 5.70	0.935	< 5.30

Source: the supplement of paper PMC4967469
